About 22,000 (7.3%) of roughly 300,000 compounds were called active. The inconclusive results got no clear call from the source; some entries with a clear call stand among them for comparison. No stated cut-off is given here; in the data, active means activity score below about -60%; inconclusive means mostly about -28% to -61%; inactive means positive scores.
Test: Activators via SNCA 5'UTR binding, MLPCN (AID 1814)
Details: alpha-synuclein 5'UTR reporter, activators screen; hits give low values; tested at 7.5 µM
With `Cc1ccc(-c2cc3c(nn2)-c2ccccc2C3=O)cc1` the activity score was inactive: 86.5%.
With `CCOc1ccc2nc(Cl)c(C3CC(c4ccco4)=NN3S(=O)(=O)c3ccccc3)cc2c1` (configuration not stated) the activity score was inconclusive: -61.1%.
For `COc1ccc(NC(=O)CCCn2c(=O)oc3ccccc32)cc1Cl`, the activity score was inconclusive: -56.3%.
For `Cc1c(Br)c(O)c(Br)c(O)c1/C=N/n1c(-c2ccccc2)n[nH]c1=S`, the activity score was inactive: 61.9%.
With `O=C(NNC(=O)c1ccccc1O)c1cc2ccccc2o1` the activity score was active: -86%.
In the case of `CSc1nn(-c2ccc(C(=O)OC(C(=O)NC(N)=O)C(C)C)cc2)c(=S)s1` (configuration not stated), the activity score is reported as inconclusive: -30.5%.
In the case of `CCOc1ccccc1C1CC(=O)Nc2cc3c(cc21)OCCO3` (configuration not stated), the activity score is reported as inactive: 91.9%.
For `COc1ccc(OCc2cccc(C(=O)O)c2)cc1`, the activity score was inactive: 128%.
With `Nc1cc(N)nc(SCC(=O)N2CCc3ccccc32)n1` the activity score was active: -87.5%.
In the case of `O=C(OCC(=O)N1CCOCC1)c1ccc(F)cc1Cl`, the activity score is reported as inconclusive: -36.9%.
For `C/C=C/COC(=O)c1[nH]c2c(c1C)C(=O)CC(c1ccco1)C2` (configuration not stated), the activity score was inactive: 67.4%.
In the case of `CC(C)c1ccc(-c2noc(C3CCCN(S(C)(=O)=O)C3)n2)cc1` (configuration not stated), the activity score is reported as inconclusive: -48.2%.
For `CN(C)/C=C1\C(=O)N(c2ccc(Oc3ccccc3)cc2)CS1=O` (configuration not stated), the activity score was inconclusive: -58.9%.
In the case of `COc1ccc(C(=O)/C(=C\c2ccco2)N2C=CC=CC2=C(C#N)C#N)cc1`, the activity score is reported as inactive: 76.6%.
With `CCCNc1cc(C)oc(=O)c1C(=O)CC` the activity score was inconclusive: -38.4%.
With `COc1ccc(Cl)cc1C(=O)Nc1ccc2c(c1)OCCO2` the activity score was active: -104%.
In the case of `Cc1ccc2nc(-c3ccc(NC(=O)C(C)Sc4nncs4)cc3)sc2c1` (configuration not stated), the activity score is reported as inactive: 61.2%.
With `CC(C)c1nnc(NC(=O)c2cccs2)s1` the activity score was active: -102%.
For `S=c1sc2c(Cl)ncnc2n1-c1ccccc1`, the activity score was inactive: 92.9%.
For `c1csc(-c2ncc3ccccn23)c1`, the activity score was inconclusive: -48.9%.
For `Cc1ccc(Oc2ccc(C(F)(F)F)cc2[N+](=O)[O-])c([N+](=O)[O-])n1`, the activity score was inconclusive: -48.4%.
In the case of `COc1ccc(/C=C(/CC(=O)Nc2ccccc2)c2nc3ccccc3s2)cc1`, the activity score is reported as inconclusive: -57.9%.
For `CCCN(CCC)S(=O)(=O)c1ccc(C(=O)Nc2nnc(-c3cc(OC)cc(OC)c3)o2)cc1`, the activity score was inactive: 81.7%.
For `CCN(CC)c1ccc(C=N/C(C#N)=C(\N)C#N)cc1`, the activity score was active: -138%.
In the case of `O=C(Cn1c(=O)[nH]c2ccccc2c1=O)Nc1ccc2c(c1)OCCO2`, the activity score is reported as inconclusive: -23.2%.
For `O=C(NC(=O)c1ccccc1Cl)Nc1ccc(-c2cnco2)cc1`, the activity score was inconclusive: -58.8%.
With `O=C(Nc1ccccc1)Nc1ccc(-n2ccc(C(F)(F)F)n2)cc1` the activity score was active: -277%.
For `CC(/C=C/c1ccco1)=N\NC(=O)CNc1ccc2ccccc2c1`, the activity score was active: -70.1%.
In the case of `CCCCC[C@H](O)/C=C/[C@@H]1[C@@H](C/C=C\CCCC(=O)OC)[C@@H](O)C[C@H]1O`, the activity score is reported as inactive: 44.3%.
With `CCOC(=O)C1=C(C)NC(SCC(=O)Nc2cc(C)on2)=C(C#N)C1c1cccs1` (configuration not stated) the activity score was inconclusive: -42.5%.
For `Cc1ccc(-c2cc(C(=O)N3CCCc4ccccc43)c3ccccc3n2)cc1`, the activity score was inconclusive: -59.9%.
With `CCCCc1ccc(-c2nc(-c3ccncc3)no2)cc1` the activity score was inactive: 91.5%.
With `CCCCOc1ccc(C(=O)NNC(=S)NC(=O)CC)cc1` the activity score was inactive: 85.4%.
For `COC(=O)c1ccc(NS(=O)(=O)NC(=O)c2c[nH]c3ccccc23)cc1`, the activity score was inconclusive: -54.1%.
For `Cn1nc(-c2ccccn2)nc2c(=O)n(C)c(=O)nc1-2`, the activity score was inactive: 93.6%.
For `NC(=O)c1sc2nc3c(cc2c1N)CCCCCC3`, the activity score was inconclusive: -61.3%.
For `CN(Cc1cnc2nc(N)nc(N)c2n1)c1ccc(C(=O)N[C@@H](CCC(=O)O)C(=O)O)cc1`, the activity score was inactive: 77.5%.
In the case of `CCOC(=O)N1CCN(S(=O)(=O)c2ccc(C(=O)NNc3nc4cc(C)cc(C)c4s3)cc2)CC1`, the activity score is reported as inactive: 66%.
For `O=C(Nc1ccc(Cl)cc1)NC1CCCCNC1=O` (configuration not stated), the activity score was inconclusive: -44.9%.
For `CCOC(=O)c1oc2nc3c(cc2c1N)COC(C)(C)C3`, the activity score was inconclusive: -49.3%.
In the case of `Cc1csc(NC(=O)CCn2c(=O)sc3ccccc32)n1`, the activity score is reported as inconclusive: -33.2%.
For `CC1CCc2sc(C(=O)NNC(=S)NC3CC3)cc2C1` (configuration not stated), the activity score was inconclusive: -54.3%.
In the case of `Cc1c(C(=O)OCC(=O)N2CCC(C)CC2)oc2ccccc12`, the activity score is reported as inconclusive: -49.3%.
In the case of `CC1=CC(=Nc2c(C)n(C)n(-c3ccccc3)c2=O)C=C(C)C1=O`, the activity score is reported as inconclusive: -45.9%.
For `O=C(Nc1cccnc1Cl)c1cc2c(s1)-c1ccccc1OC2`, the activity score was inconclusive: -61.3%.
With `Cn1cnnc1SCC(=O)Nc1ccc2nc(SCc3ccccc3)sc2c1` the activity score was active: -142%.
With `Fc1ccccc1-c1nc(-c2cnccc2C(F)(F)F)no1` the activity score was inconclusive: -45.3%.
With `COc1ccccc1NC(=O)c1cc2cc(Br)ccc2oc1=N` the activity score was inconclusive: -60.2%.
For `Cc1ccc(OCC(=O)N/N=C\c2cn(Cc3ccccc3)c3ccccc23)cc1C`, the activity score was inactive: 76.1%.
In the case of `NNC(=O)c1ccc(COc2ccc3c(c2)CCC3)cc1`, the activity score is reported as inconclusive: -40.7%.
In the case of `O=C(c1ccc(Cl)s1)N(Cc1nnc(-c2ccccc2Cl)o1)C1CC1`, the activity score is reported as inconclusive: -56.4%.
With `COc1cc(C(=O)N/N=C/c2cn(Cc3ccccc3)c3ccccc23)ccc1O` the activity score was inactive: 57.2%.
With `CC1CC(C)CN(CC(=O)Nc2ccc3c(c2)OCCO3)C1` (configuration not stated) the activity score was inconclusive: -50.4%.
For `NS(=O)(=O)c1ccc(NC(=O)/C=C/c2ccco2)cc1`, the activity score was inconclusive: -48.8%.
With `CCCCN1C(=O)C(=O)N(CC(=O)N2N=C3/C(=C/c4ccco4)CCCC3C2c2ccco2)C1=O` (configuration not stated) the activity score was active: -86.3%.
With `O=C(NC(Nc1ncc(S(=O)(=O)c2ccc([N+](=O)[O-])cc2)s1)(C(F)(F)F)C(F)(F)F)c1ccc(Cl)cc1` the activity score was inactive: 72.8%.
With `Cc1cccc(-n2cc(CN3CCN(Cc4nccn4C)CC3)c(-c3cccc(F)c3)n2)c1` the activity score was inconclusive: -51.4%.
In the case of `Oc1ccc(/C=N/NC(=S)NC2CC3CCC2C3)cc1` (configuration not stated), the activity score is reported as inconclusive: -49.5%.
For `S=C(Nc1ccc2nccnc2c1)N1CCOCC1`, the activity score was inconclusive: -55.7%.
For `Cc1ccc(-n2c(C)cc(C3=NNC(=NC4CC4)SC3)c2C)cc1C`, the activity score was inconclusive: -59.7%.
For `C/C(=N\NC(=S)Nc1cccc(C)c1)c1cccc(N)c1`, the activity score was inconclusive: -49%.
With `CCOC(=O)COc1cccc2c(=O)n(CC(=O)NCc3ccc(F)cc3)ccc12` the activity score was inactive: 75.2%.
With `Oc1ccccc1-c1nnc(SCCN2CCOCC2)n1Cc1ccccc1` the activity score was inactive: 80.7%.
With `Cc1nc2ccc(NC(=O)NCc3ccco3)cc2s1` the activity score was inconclusive: -59.8%.
In the case of `COc1cccc(C(=O)Nc2cc(C)on2)c1OC`, the activity score is reported as inconclusive: -51.4%.
With `Cc1ccc(OCc2ccc(C(=O)Nc3nc4ccccc4n3Cc3ccccc3)o2)c([N+](=O)[O-])c1` the activity score was inactive: 61.1%.
With `COc1cccc(Nc2nc3ccccc3c(=O)[nH]2)c1` the activity score was inconclusive: -47.4%.
For `COc1ccc(NC(=O)C(=O)N/N=C\c2ccc(CNC(=O)C(=O)Nc3ccc(C)c(C)c3)o2)c(OC)c1`, the activity score was inactive: 88.4%.
In the case of `N#Cc1ccc(-c2cccs2)nc1SCc1cccnc1`, the activity score is reported as inactive: 90.3%.
In the case of `O=C(NC(=S)Nc1cc([N+](=O)[O-])ccc1Cl)c1ccccc1`, the activity score is reported as active: -85.3%.
With `COc1cc2c(cc1NC(=S)NC(=O)c1c(OC)cccc1OC)oc1ccccc12` the activity score was inconclusive: -51.8%.
For `COc1ccc(C(=O)Nc2ccc(C)cn2)c(OC)c1`, the activity score was inactive: 115%.
In the case of `O=C(CNC(=O)c1ccc([N+](=O)[O-])cc1)c1ccccc1`, the activity score is reported as inconclusive: -58.8%.
For `COc1ccccc1/C=N\Nc1ccccc1[N+](=O)[O-]`, the activity score was active: -91.5%.
For `COc1ccc(C)c(Cn2c(-c3nonc3N)nc3ccccc32)c1`, the activity score was inactive: 76.2%.
With `CSc1ccc2c(c1)N(CCC1CCCCN1C)c1ccccc1S2` (configuration not stated) the activity score was inactive: 110%.
With `COCC(C)n1c(C)cc(C(=O)CSc2ncccn2)c1C` (configuration not stated) the activity score was active: -75.9%.
In the case of `O=C(CCCN1C(=O)/C(=C/c2ccccc2Cl)SC1=S)NNC(=O)c1ccc(Cl)cc1`, the activity score is reported as inactive: 64.7%.
In the case of `Cc1noc(C)c1COc1cccc(C(=O)OCC(=O)N2CC(=O)Nc3ccccc32)c1`, the activity score is reported as inactive: 64.9%.
With `O=C(Nc1ccc(Cl)c(Cl)c1)C1=Cc2ccccc2OC1` the activity score was active: -202%.
For `CCOC(=O)c1sc(NC(=O)/C=C/c2ccccc2)nc1C`, the activity score was active: -94.5%.
With `COc1cccc(C(=O)Nc2ccc3[nH]c(=O)[nH]c3c2)c1OC` the activity score was inactive: 67.8%.
For `CCOc1ccccc1C(=O)Nc1c[nH]c(=O)[nH]c1=O`, the activity score was inactive: 61.6%.
In the case of `O=C(NCCCN1CCOCC1)c1sc2ccccc2c1Cl`, the activity score is reported as inconclusive: -43.1%.
For `N#C/C(=C/c1ccc2c(c1)OCO2)C(=O)Nc1ccc(O)cc1`, the activity score was inconclusive: -60.5%.
In the case of `Cc1cc(Nc2nc3ccccc3nc2Cl)n(-c2ccc([N+](=O)[O-])cc2)n1`, the activity score is reported as inconclusive: -50.6%.
For `CCC(=O)NC(c1ccc(C)cc1)c1ccc2cccnc2c1O` (configuration not stated), the activity score was inactive: 80.9%.
With `CCOc1ccccc1NC(=O)n1ncc2c(C)cccc21` the activity score was active: -68.5%.
With `O=C(CSc1ccc(Cl)cc1)Nc1cccc(-c2nnc(-c3ccco3)o2)c1` the activity score was inconclusive: -45.4%.
With `Cc1cc(C(=O)COc2cc(F)ccc2[N+](=O)[O-])c(C)n1C1CC1` the activity score was inconclusive: -26.1%.
With `Cc1ccc(-c2noc(-c3cc4ccccc4oc3=O)n2)cc1` the activity score was active: -80%.
For `Cc1oc2ccccc2c1-c1cn2c(n1)SCC2`, the activity score was inconclusive: -59.5%.

— PubChem BioAssay AID1814 (Broad Institute, 2009)
